# PubChem BioAssay AID493208 (National Center for Advancing Translational Sciences (NCATS), 2011)
# In all, about 44,000 compounds went through this assay and about 340 (0.77%) were called active. Another 5% or so got no clear call; they are omitted. Calls come from the whole dose curve; as a rule, active = well fitted inhibition curve with a large enough effect; inconclusive = small, poorly fitted or top-dose-only effect; inactive = flat fitted curve, though single readings scatter. This is one part of the list.
# Assay: Acumen qHTS Assay for Inhibitors of the mTORC1 Signaling Pathway in MEF (Tsc2-/-, p53-/-) Cells: Sytravon; note: nearly all actives have a fitted effect of over 50% in size;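 for activity change, negative = inhibition: plate controls were DMSO for no effect and rapamycin for full effect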
# Settings: phospho-rpS6 immunofluorescence/PI, 24 h; series mostly up to 38.3 µM; activity change, negative = inhibition: at the top concentration
# Procedure, shortened: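 Compounds act on Tsc2-/-, p53-/- fibroblasts carrying an empty vector for 24 h before fixation and dual staining for phospho-S6 and DNA (propidium iodide). Values are percentages of cells above a rapamycin-defined pS6/PI threshold.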
# Potency is the fitted concentration of half-maximal effect.
SMILES,"activity change, negative = inhibition",Potency
CCCCn1c(CCCNC(=O)c2cccc(C)c2)nc2ccccc21,inactive: -2.48%,
COCCNC(=O)Cn1nc(-c2ccc(C)cc2)c2ccccc2c1=O,inactive: 6.11%,
Cc1nc2cc(-c3cccc(F)c3)nn2c(C)c1CCC(=O)Nc1ccccc1C(N)=O,inactive: -6.55%,
Cc1cccc(NC(=O)c2ccc(CN3CC(=O)N4CCCCC4C3=O)cc2)c1C (centres undefined),inactive: -0.838%,
COc1ccc(CNc2nc(-c3ccc(Cl)cc3)cc(C(F)(F)F)n2)cc1,inactive: -9.71%,
CCc1ccccc1NC(=O)COCc1cc(-c2ccco2)on1,inactive: 1.16%,
COc1ccccc1S(=O)(=O)Cc1ccc(C(=O)N2CCN(c3cc(Cl)ccc3C)CC2)o1,inactive: -24.1%,
CCOc1ccc2c(c1)c(=O)c(C(=O)c1ccc(CC)cc1)cn2CC(=O)Nc1cccc(Cl)c1,inactive: 2.66%,
COc1cc(C2CC(=O)Nc3ccc4ccccc4c32)ccc1OC(=O)C(C)C (centres undefined),inactive: -10.4%,
O=C(NCCc1ccccc1)c1ccc2nc(CCc3ccccc3)oc2c1,inactive: -8.14%,
Cc1cc(C)c(Cn2c(=O)n(CCC(=O)NCc3ccc4c(c3)OCO4)c(=O)c3ccccc32)c(C)c1,inactive: 2.24%,
CCOc1ccc(OCC)c(NC(=O)C2CCN(S(=O)(=O)c3ccc4c(c3)CC(C)N4C(C)=O)CC2)c1 (centres undefined),inactive: -16.8%,
Cc1ccc(N2C(=O)[C@@H]3CSC(c4ccc(Cl)cc4)N3C2=O)cc1 (some centres undefined),inactive: -9.73%,
Cc1cc(O)c(C(c2ccccc2)N2CCN(c3ccc(F)cc3)CC2)c(=O)n1Cc1ccco1 (centres undefined),inactive: 6.44%,
O=C(c1ccco1)N(Cc1cccs1)c1ccc(F)cc1,inactive: -6.76%,
Cc1ccc(-n2c(CCC(=O)O)ccc2-c2cccs2)cc1Cl,inactive: 3.12%,
Cc1cccc(OCc2cc(=O)n3c4c(sc3n2)CCCC4)c1C,inactive: -14.3%,
CCc1ccc(C(=O)CC2(O)C(=O)N(Cc3ccc(C)cc3)c3ccccc32)cc1 (centres undefined),,active: 11.7 µM
CC(C)c1nc2ccc(C(=O)NCc3ccccc3Br)cc2o1,inactive: 2.27%,
CCc1ccccc1NC(=O)c1cc2nc(-c3ccc(Br)cc3)cc(C(F)(F)F)n2n1,inactive: -1.47%,
Cc1noc(-c2ccccc2OCC(=O)Nc2ccccc2[N+](=O)[O-])n1,inactive: 2.11%,
COc1cccc(CNC(=O)c2ccc(-n3c(C)cc4c3CCCC4)cc2)c1,inactive: 2.96%,
COc1ccc(CNC(=O)c2sc3nc[nH]c(=O)c3c2C)cc1,inactive: -0.0727%,
CCOc1ccccc1N1CC(c2nc3ccccc3n2CCCOc2ccc(OC)cc2)CC1=O (centres undefined),inactive: -8.59%,
CC(C)OCCCN1C(=O)c2[nH]nc(-c3ccccc3O)c2C1c1ccccc1F (centres undefined),inactive: -5.14%,

SMILES,"activity change, negative = inhibition",Potency
O=C(NCC1CCN(Cc2cccc(Cl)c2)CC1)Nc1ccc(F)c(Cl)c1,,active: 18.5 µM
CCN1CCSc2ccc(C(=O)NCc3cccc(Br)c3)cc21,inactive: -1.16%,
CCCCOc1ccccc1C(=O)N(Cc1sccc1C)C1CCS(=O)(=O)C1 (centres undefined),inactive: 6.41%,
CC(C)(C)c1ccc(C(=O)N2CCCC(c3nc4c(nnn4Cc4cccc(F)c4)c(=O)[nH]3)C2)cc1 (centres undefined),inactive: -0.0857%,
Cc1ccc(-c2cn3nc(N4CCCC(C(=O)NCc5ccc(F)cc5)C4)sc3n2)cc1 (centres undefined),inactive: -5.69%,
COc1ccc(N2CCN(Cc3nc4c(c(=O)n(C)c(=O)n4C)n3C(C)C)CC2)cc1,inactive: -1.58%,
Cc1cc(C)cc(NC(=O)Cn2c(=O)n(-c3ccc(C)c(C)c3)c(=O)c3oc4ccccc4c32)c1,inactive: 2.05%,
Cc1ccc2nc(CN3CCN(S(=O)(=O)c4ccc(C(C)C)cc4)CC3)oc2c1,inactive: 0%,
CN(C)CCCn1c(-c2ccc(Cl)cc2)csc1=Nc1ccccc1,inactive: -15.6%,
COC(=O)c1ccc(NC(=O)CCn2cnnn2)c(C)c1,inactive: -1.45%,
COc1ccc(NC(=O)CN2C(=O)CSc3ccc(S(=O)(=O)N(C)C)cc32)cc1Cl,inactive: -4.33%,
COc1ccc(NC(=O)C2CCN(C(=O)N3CCOc4ccccc43)CC2)cc1,inactive: -11.3%,
COc1ccc(CNC(=O)CCCn2c(=O)c3cccn3c3ccc(F)cc32)cc1OC,inactive: 3.28%,
Cc1ccc(-n2ncc(C(=O)NCc3ccccn3)c2C2CCN(C(=O)OC(C)(C)C)CC2)c(C)c1,inactive: 7.46%,
COc1ccc(-c2noc(N3CCC(C(=O)Nc4ccc(OC)c(OC)c4)CC3)n2)cc1,inactive: -14.7%,
O=c1c2cc3c(cc2n(Cc2ccccc2)c(=O)n1Cc1nc(-c2ccccc2)no1)OCO3,inactive: -3.7%,
COc1ccc(NC(=O)N2CCN(S(=O)(=O)c3ccc4c(ccn4C)c3)CC2)cc1OC,inactive: -6.68%,
COCCCNC(=O)C(C)n1c2ccccc2c2cnn(C)c(=O)c21 (centres undefined),inactive: -8.8%,
Cc1cccc(C)c1NC(=O)CN(Cc1ccc(Br)cc1)S(=O)(=O)c1ccccc1,inactive: 1.62%,
COc1ccc(Br)cc1CNC(=O)c1cc(=O)[nH]c2ccc(S(=O)(=O)N3CCCCC3)cc12,inactive: 20%,
CCCSc1nc(-c2ccc(OC)cc2)cc(-c2ccccc2OC)c1C#N,inactive: 4.49%,
COc1ccc(Cl)cc1Nc1cc(C)nc2nc(-c3ccccc3C)nn12,inactive: -0.237%,
CN(C)c1ccc(C(CNC(=O)c2cccc(C(F)(F)F)c2)N2CCCC2)cc1 (centres undefined),inactive: 2.78%,
CCOc1ccc(NC(=O)C2CCN(S(=O)(=O)c3c(C)noc3/C=C/c3c(C)cc(C)cc3C)CC2)cc1,inactive: -16.8%,
